The values below come from PubChem BioAssay AID1508624 (National Center for Advancing Translational Sciences (NCATS), 2021).

SMILES strings stand for the structures. Hit rate of the full screen: of about 48,000 compounds, about 120 (0.25%) were called active. Not shown: some 4% with an inconclusive outcome. Calls come from the whole dose curve; as a rule, active = well fitted activation curve with a large enough effect; inconclusive = small, poorly fitted or top-dose-only effect, or another doubt; inactive = no such curve, though single readings can be large or run the other way. The list shows a part of the results.

This assay in a line: Primary qHTS for Identification of Small Molecule Activators of Huntingtin-Antisense Promoter Activity. Note: nearly all actives have a fitted effect of over 55% in size. The following applies: HEK293 HTT-AS promoter firefly luciferase reporter (activity 0% = vehicle and -100% = no light), 24 h; series mostly up to 57.5 µM; activity change, positive = activation: at the top concentration. An outline of the steps: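 Luminescence was read after Dual-Glo reagent and a 10 min room-temperature incubation. Values were normalized to vehicle (0% activity) and zero RLU (-100% activity). Reporter HEK293 cells had been exposed to compounds (up to 57.5 uM final) for 24 h.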
(Quantitative high-throughput screening tests each substance at several concentrations.)
For the compound `Cc1ccc(C)c(NC(=O)Cn2c(=O)n(CC(=O)NCCc3ccccc3)c(=O)c3ccccc32)c1`, the “activity change, positive = activation” value was inactive: -2.84%.
Consider `O=C(CCCn1c(=O)[nH]c2ccsc2c1=O)N1CCN(c2ccc(Cl)cc2)CC1`, for which the “activity change, positive = activation” value was inactive: -33.3%.
On to `O=C(CSc1nnc(-c2ccc(Cl)cc2)c(-c2ccc(Cl)cc2)n1)NC1CCCC1`, for which the “activity change, positive = activation” value is inactive: 2.91%.
In the case of `CC(=O)c1cccc(Nc2nc(-c3ccccc3Cl)nc3ccccc23)c1` it was inactive: -44.1%; in that of `Cc1ccccc1Cn1c2ccccc2c2cnn(CC(=O)NCCc3ccc(Cl)cc3)c(=O)c21`, inactive: 4.57%; in that of `O=C(NC1CC(=O)N(c2ccccc2)C1)c1ccc(S(=O)(=O)N2CCCC2)cc1` (configuration not stated), inactive: -22.7%.
`Nc1ncc(S(=O)(=O)NCc2ccc(F)cc2)cn1`: the “activity change, positive = activation” value was inactive: -8.26%.
Regarding `CC(CCCc1ccccc1)NC(=O)c1nn(-c2ccc(Cl)cc2)nc1CO` (configuration not stated), the “activity change, positive = activation” value was inactive: -34.7%.
On to `CC(C)c1cccc(C(C)C)c1NS(=O)(=O)c1cccs1`, for which the “activity change, positive = activation” value was inactive: -31.2%.
For the compound `Cc1ccc2[nH]c3c(=O)n(CC(=O)N4CCCC(C)C4)ncc3c2c1` (configuration not stated), the “activity change, positive = activation” value is inactive: -9.46%.
`CCOC(=O)c1c(C)[nH]c(C)c1S(=O)(=O)NCC(=O)N1CCN(c2ccccc2F)CC1`: the “activity change, positive = activation” value was inactive: -0.711%.
The same measure for `COc1ccc(CNC(=O)C2CCN(S(=O)(=O)c3ccc4c(ccn4C)c3)CC2)cc1`: inactive: -19.7%; for `Cc1cc(C)c2c(-n3cccc3)c(C(=O)NCC(C)c3ccccc3)sc2n1` (configuration not stated): inactive: -19.6%; for `COc1ccc(C(=O)CCC(=O)Nc2cc(C)ccc2C)cc1`: inactive: -20.8%.
The same measure for `CCOc1ccccc1NC(=O)c1cc2c(=O)[nH]c3ccccc3c2s1`: inactive: -3.02%; for `Cc1cccc2sc(N(Cc3cccnc3)C(=O)COc3ccccc3)nc12`: inactive: -23.1%; for `O=C(NC1CCCCC1)c1ccc2c(c1)N(Cc1cccc(Cl)c1)C(=O)c1ccccc1S2=O` (configuration not stated): inactive: -12.9%.
In the case of `CCc1ccc(NC(=O)c2sc3nc(C)cc(C)c3c2NC(=O)c2ccccc2OC)cc1` it was inactive: 27.3%.
Take `CCN(Cc1ccccc1)C(=O)CCS(=O)(=O)c1ccc2c(c1)CCN2C(C)=O`: the “activity change, positive = activation” value is inactive: -22.6%.
For `COc1ccc(CN2CCN(S(=O)(=O)c3ccc(NC(C)=O)cc3)CC2)c(OC)c1OC`, the “activity change, positive = activation” value is inactive: -16.4%.
In the case of `CC(=O)c1cc2c(cc1N/C(=N/S(=O)(=O)c1ccc(F)cc1)c1ccccc1)OCO2` it was inactive: -9.9%; in that of `O=C(Cn1ncc2c3ccccc3n(Cc3cccc(Cl)c3)c2c1=O)N1CCCCCC1`, inactive: -30.2%; in that of `O=C(NCc1ccco1)c1ccc2c(c1)N(Cc1cccc(Cl)c1)C(=O)c1ccccc1S2=O` (configuration not stated), inactive: -37.9%.
The same measure for `CCOc1ccc(CCNC(=O)Cn2c(C)c3cnn(-c4ccccc4)c(=O)c3c2C)cc1`: inactive: -11.2%.
Consider `COc1cc(OC)c(NC(=O)CSc2cc(=O)n(C)c3ccc(Cl)cc23)cc1Cl`, for which the “activity change, positive = activation” value was inactive: -0.0423%.
For the compound `CCc1c(CN2CCN(c3cccc(C)c3)C(C)C2)csc1C` (configuration not stated), the “activity change, positive = activation” value was inactive: -12.9%.
The same measure for `CN(C)CCNC(=O)Cn1nc(N2CCN(c3ccccc3)CC2)ccc1=O`: inactive: -15.4%; for `CCOc1ccc(CC(=O)NCc2ccc3c(c2)CCN3C(C)=O)cc1OCC`: inactive: -13.5%.
In the case of `CC(C)(C)OC(=O)N1CCC(c2c(C(=O)N3CCN(c4ncccn4)CC3)cnn2-c2cccc(F)c2)CC1` it was inactive: 13.5%.
The same measure for `COc1ccc(NC(=O)CCc2nnc3n(CC(C)C)c(=O)c4ccccc4n23)cc1OC`: inactive: -1.01%; for `Cc1ccc(C)c(S(=O)(=O)c2nnn3c2nc(N2CCCCC2)c2sccc23)c1`: inactive: -36.2%; for `Cc1ccc(O)c(NC(=O)COCc2cc(-c3ccco3)on2)c1`: inactive: 1.44%.
For the compound `COc1ccc(OC)c(NC(=O)Cn2cc(C(=O)c3ccc(Cl)cc3)c(=O)c3cc(OC)ccc32)c1`, the “activity change, positive = activation” value was inactive: -27.1%.
For `CC(=O)Nc1nonc1-c1nnc(SCc2ccccc2Cl)n1C`, the “activity change, positive = activation” value is inactive: -4.99%.
The same measure for `COc1cc2c(cc1OC)n(CC(=O)c1ccc(C)cc1)c(=O)n1nc(CCn3nc(C)cc3C)nc21`: inactive: -1.24%.
The same measure for `COc1ccc(NC(=O)c2ccc3c(c2)CCN3S(=O)(=O)c2ccccc2)cc1`: inactive: -17.1%; for `COc1ccc(-c2cc(C(=O)Oc3cccc(C)c3C)c3ccccc3n2)cc1`: inactive: -6.18%.
The same measure for `Cc1noc2ncnc(N3CCCC(C(=O)Nc4cccc(C(F)(F)F)c4)C3)c12` (configuration not stated): inactive: -38.6%.
`CCc1ccc(NC(=O)c2ccc(F)c(S(=O)(=O)N3CCN(c4cc(C)ccc4C)CC3)c2)cc1`: the “activity change, positive = activation” value is inactive: -28.1%.
Consider `O=C1c2cccc(O)c2C(=O)c2c(O)cccc21`, for which the “activity change, positive = activation” value was inactive: 0.0892%.
In the case of `Cc1cc(C)c2c(=O)c3c(oc2c1)C(=O)N(Cc1ccco1)C3c1ccccc1F` (configuration not stated) it was inactive: -2.94%; in that of `Cn1cc(-c2cc3n(n2)CCC(=O)N3CCCC(=O)Nc2ccccc2F)c2ccccc21`, inactive: -8.68%.
The same measure for `COc1ccc(-c2nc(S(=O)(=O)c3ccc(C)cc3)c(NCc3ccccc3)o2)cc1`: inactive: 0.363%.
The same measure for `CCc1c(C)c(C#N)c2nc3ccccc3n2c1Nc1cccc(C(F)(F)F)c1`: inactive: -25.8%; for `CCc1cccc(NC(=O)C(CC)n2nc(C)c3sc4ccccc4c3c2=O)c1` (configuration not stated): inactive: -10.8%.
`COc1ccc(NC(=O)c2sc3nc4c(cc3c2N)CN(Cc2ccccc2)CC4)cc1OC`: the “activity change, positive = activation” value was inactive: -8.42%.
In the case of `Cc1noc(-c2ccc(-c3noc(-c4ccc(C(F)(F)F)cc4)n3)cc2)n1`, the “activity change, positive = activation” value is inactive: -2.62%.
